Assay results as given in PubChem BioAssay (Tox21).
Where “and” joins values, the source holds several entries; their conditions need not be identical. Equal values may be shown once. This list was built around the results that the source calls inconclusive (neither active nor inactive); the mix of calls is not that of the screen. Where the call is inconclusive, the potency comes from a doubtful curve fit. Calls of active or inactive are those of the source. Unless noted, the call rests on the fitted dose curve.

Assays:
[1] = qHTS assay to identify small molecule agonists of the estrogen receptor alpha (ER-alpha) signaling pathway in the presence of an antagonist - cell viability counter screen (AID 1259386; active means well fitted curve in the direction sought with a large enough effect in the repeat runs; inconclusive means weak or mixed curves; inactive means no such curve, though single readings can be large; an effect the other way counts as inactive or inconclusive;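 further: cells exposed to compounds for 22 h at 37 °C before the viability read; nearly all actives have a fitted effect of over 30% in size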)
How it was run: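 Read-out: CellTiter-Fluor fluorescence after 1hr reagent incubation, measured in the same wells as the luciferase readout. VM7Luc4E2 cells were exposed to 15 compound concentrations with 10.0nM ICI-182,780 for 22hr at 37C.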

[2] = target: Thyrotropin receptor (Homo sapiens) (UniProt P16473); test: qHTS assay to identify small molecule antagonists of the thyroid stimulating hormone receptor (TSHR) signaling pathway (AID 1259385); conditions: TSHR-HEK293 cAMP HTRF, TSH-stimulated antagonist mode; activity change, negative = inhibition: at 92.4 µM (top of the series) unless noted; further: nearly all actives have a fitted effect of over 20% in size; on activity change, negative = inhibition: on the % scale 0 is the no-effect control and ±100 the full control effect
How it was run: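 Antagonist mode: compound-treated TSHR-expressing HEK293 cells were stimulated with 1.5 ng/mL TSH (final) in presence of Ro20-1724 for 30 min at RT. HTRF cAMP detection after 1 h; each compound tested at 15 concentrations, triplicate.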

[3] = qHTS assay to identify small molecule agonists of the progesterone receptor (PR) signaling pathway - cell viability counter screen (AID 1346799); further: nearly all actives have a fitted effect of over 45% in size
How it was run: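 Luminescence from CellTiter-Glo, added after the beta-lactamase FRET read in the same wells, gave cytotoxicity in PR-UAS-bla HEK293T cells treated with compounds for 16 hr at 37C.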

[4] = qHTS assay to identify small molecule agonists of the TGF-beta/Smad signaling pathway (AID 1346859; active means well fitted activation curve with a large enough effect in the signal ratio in the repeat runs, not every such curve was filed as active; inconclusive means weak or mixed curves; the % refers to the signal ratio; on activation: on the % scale 0 is the no-effect control and ±100 the full control effect); conditions: SBE-bla HEK293T, TGF-beta/Smad beta-lactamase reporter, 5 h; activation: at 76.8 µM (top of the series) unless noted
How it was run: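 SBE-bla HEK 293T, 4,000 cells/well, plated o/n; cpd in DMSO, 5 hr, 37 C/5% CO2; B/G FRET substrate 2 hr RT; ex 405, em 460/530 nm.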

[5] = target: Progesterone receptor (Homo sapiens) (UniProt P06401); test: qHTS assay to identify small molecule agonists of the progesterone receptor (PR) signaling pathway (AID 1346784); conditions: PR-UAS-bla HEK293T, beta-lactamase FRET ratio, 16 h; activation: at 92.4 µM (top of the series) unless noted; further: nearly all actives have a fitted effect of over 30% in size; on activation: on the % scale 0 is the no-effect control and ±100 the full control effect
How it was run: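 Beta-lactamase reporter read-out: after 16 hr compound treatment at 37C and a further 2 hr at room temperature with LiveBLAzer B/G FRET substrate, fluorescence was measured in PR-UAS-bla HEK 293T cells grown in 2% charcoal-stripped serum.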

[6] = target: Progesterone receptor (Homo sapiens) (UniProt P06401); test: qHTS assay to identify small molecule antagonists of the progesterone receptor (PR) signaling pathway (AID 1346795; active means well fitted inhibition curve with a large enough effect in the signal ratio in the repeat runs, not every such curve was filed as active; inconclusive means weak or mixed curves; the % refers to the signal ratio; on activity change, negative = inhibition: on the % scale 0 is the no-effect control and ±100 the full control effect); conditions: PR-UAS-bla HEK293T, beta-lactamase FRET ratio, 16 h
How it was run: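 Read-out is fluorescence from the LiveBLAzer B/G FRET substrate, cleaved by a UAS-controlled beta-lactamase in PR-UAS-bla HEK293T cells after 16 hr exposure to compound plus 1 nM promegestone (final), followed by 2 hr at room temperature.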

[7] = qHTS assay to identify small molecule antagonists of the progesterone receptor (PR) signaling pathway - cell viability counter screen (AID 1346798; active means well fitted curve in the direction sought with a large enough effect in the repeat runs; inconclusive means weak or mixed curves; inactive means no such curve, though single readings can be large; an effect the other way counts as inactive or inconclusive; further: nearly all actives have a fitted effect of over 50% in size)
How it was run: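 HEK293T PR-UAS-bla, 2% charcoal-stripped FBS; 4 hr pre-plate; cpd + R5020, 16 h 37C; LiveBLAzer read first; then CellTiter-Glo 30 min RT, luminescence.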

[8] = qHTS assay to identify small molecule antagonists of the TGF-beta/Smad signaling pathway - cell viability counter screen (AID 1346824; active means well fitted curve in the direction sought with a large enough effect in the repeat runs; inconclusive means weak or mixed curves; inactive means no such curve, though single readings can be large; an effect the other way counts as inactive or inconclusive; further: nearly all actives have a fitted effect of over 50% in size)
How it was run: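 Cytotoxicity counter-screen run in the same wells as the beta-lactamase Smad reporter read: CellTiter-Glo luminescence after 30 min at room temperature. HEK 293T SBE-bla cells had 5 hr compound exposure at 37 C with TGF-beta1 (0.25 ng/mL stock).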

[9] = qHTS assay to identify small molecule agonists of the TGF-beta/Smad signaling pathway - cell viability counter screen (AID 1346829; active means well fitted curve in the direction sought with a large enough effect in the repeat runs; inconclusive means weak or mixed curves; inactive means no such curve, though single readings can be large; an effect the other way counts as inactive or inconclusive; further: nearly all actives have a fitted effect of over 45% in size)
How it was run: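 Cytotoxicity counter screen: CellTiter-Glo luminescence (30 min, room temperature) measured in the SBE-bla HEK 293T reporter wells after 5 hr compound treatment at 37 C and the 2 hr substrate step.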

[10] = target: Thyrotropin-releasing hormone receptor (Homo sapiens) (UniProt P34981); test: qHTS assay to identify small molecule antagonists of the thyrotropin-releasing hormone receptor (TRHR) signaling pathway (AID 1346877; active means well fitted inhibition curve with a large enough effect in the repeat runs, not every such curve was filed as active; inconclusive means weak or mixed curves)
How it was run: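 HEK293/TRHR cells, 18 h, 37 °C; Ca2+ dye 2 h; cpd 5 min RT; TRH 1 nM final; fluorescence read 3 min, 1 s intervals; 15 concs, triplicate.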

[11] = activity change, negative = inhibition: at 92.4 µM (top of the series) unless noted
Potency means the concentration at half of the fitted maximal effect; tags describe the fitted curve by direction and shape or compound fluorescence and quenching.

UniProt P34981, sequence (P34981 whole entry, looked up): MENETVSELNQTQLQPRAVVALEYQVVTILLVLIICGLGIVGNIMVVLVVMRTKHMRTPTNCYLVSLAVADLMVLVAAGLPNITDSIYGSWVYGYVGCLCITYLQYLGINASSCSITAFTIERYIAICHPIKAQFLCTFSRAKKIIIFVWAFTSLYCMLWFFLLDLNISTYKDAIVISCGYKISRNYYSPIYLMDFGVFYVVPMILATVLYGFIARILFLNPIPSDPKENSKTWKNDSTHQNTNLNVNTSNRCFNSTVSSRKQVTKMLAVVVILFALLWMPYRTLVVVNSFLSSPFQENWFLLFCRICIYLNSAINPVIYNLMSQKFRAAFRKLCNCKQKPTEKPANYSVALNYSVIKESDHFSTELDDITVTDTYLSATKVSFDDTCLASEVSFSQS
UniProt P16473, sequence (P16473 whole entry, looked up): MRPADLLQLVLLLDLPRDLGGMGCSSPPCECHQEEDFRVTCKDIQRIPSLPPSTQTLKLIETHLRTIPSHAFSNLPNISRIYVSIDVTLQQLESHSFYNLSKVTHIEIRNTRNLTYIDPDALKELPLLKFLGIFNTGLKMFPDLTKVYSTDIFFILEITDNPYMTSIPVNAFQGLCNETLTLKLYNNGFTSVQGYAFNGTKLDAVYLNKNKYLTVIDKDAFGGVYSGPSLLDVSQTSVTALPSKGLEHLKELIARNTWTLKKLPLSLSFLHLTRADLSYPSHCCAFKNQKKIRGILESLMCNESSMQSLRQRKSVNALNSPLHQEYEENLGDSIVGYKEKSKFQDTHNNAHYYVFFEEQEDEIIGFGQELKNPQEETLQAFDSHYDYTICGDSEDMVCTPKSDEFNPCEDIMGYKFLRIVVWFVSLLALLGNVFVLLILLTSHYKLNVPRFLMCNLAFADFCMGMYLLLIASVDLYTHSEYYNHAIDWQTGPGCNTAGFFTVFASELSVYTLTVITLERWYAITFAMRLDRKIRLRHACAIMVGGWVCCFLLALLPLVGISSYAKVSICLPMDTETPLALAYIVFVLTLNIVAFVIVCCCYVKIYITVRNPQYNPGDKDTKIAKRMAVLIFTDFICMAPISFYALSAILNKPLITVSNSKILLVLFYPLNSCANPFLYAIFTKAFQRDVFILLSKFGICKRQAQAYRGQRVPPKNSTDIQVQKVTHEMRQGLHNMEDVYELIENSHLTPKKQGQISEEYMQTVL
UniProt P06401, sequence (P06401 whole entry, looked up): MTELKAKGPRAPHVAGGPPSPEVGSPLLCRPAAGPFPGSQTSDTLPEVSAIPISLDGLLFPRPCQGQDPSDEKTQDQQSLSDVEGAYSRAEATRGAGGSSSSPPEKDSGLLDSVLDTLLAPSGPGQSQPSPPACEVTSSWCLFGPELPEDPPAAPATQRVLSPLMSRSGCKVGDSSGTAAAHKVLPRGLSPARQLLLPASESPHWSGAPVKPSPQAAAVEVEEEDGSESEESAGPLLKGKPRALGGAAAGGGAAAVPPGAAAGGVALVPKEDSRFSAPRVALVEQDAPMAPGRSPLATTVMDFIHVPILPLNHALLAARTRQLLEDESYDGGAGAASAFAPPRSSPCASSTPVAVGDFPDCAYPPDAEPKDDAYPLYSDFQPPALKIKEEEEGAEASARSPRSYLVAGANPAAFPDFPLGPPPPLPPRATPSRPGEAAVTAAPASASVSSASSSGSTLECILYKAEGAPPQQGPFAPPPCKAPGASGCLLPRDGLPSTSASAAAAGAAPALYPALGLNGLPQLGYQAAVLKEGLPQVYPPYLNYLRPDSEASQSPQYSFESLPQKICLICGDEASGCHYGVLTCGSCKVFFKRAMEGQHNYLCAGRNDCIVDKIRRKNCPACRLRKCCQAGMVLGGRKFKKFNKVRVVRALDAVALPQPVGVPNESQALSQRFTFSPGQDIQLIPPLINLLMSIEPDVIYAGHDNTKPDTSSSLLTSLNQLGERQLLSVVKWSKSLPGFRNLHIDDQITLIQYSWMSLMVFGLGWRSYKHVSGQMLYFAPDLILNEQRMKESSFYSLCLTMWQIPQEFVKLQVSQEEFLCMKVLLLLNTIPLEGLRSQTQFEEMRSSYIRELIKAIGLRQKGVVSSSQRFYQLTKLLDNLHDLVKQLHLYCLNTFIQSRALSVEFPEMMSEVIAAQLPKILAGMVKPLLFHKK

Compound: Cc1ccc(N=Nc2c(O)c(C(=O)O)cc3ccccc23)c(S(=O)(=O)O)c1
- Potency [1]: active: 23.6 µM

Compound: Cc1ccc(NC(=O)c2ccc(CN3CCN(C)CC3)cc2)cc1Nc1nccc(-c2cccnc2)n1
- Potency [2]: inconclusive: 33.5 µM
- Potency [3]: inconclusive: 18.8 µM [rising, partial curve]
- Potency [4]: inconclusive: 1.34 µM [falling, full curve, poor fit]

Compound: CN(C)CCN1CCN(c2cccc(Cl)c2)C1=O
- Potency [2]: inactive
- Potency [3]: inconclusive: 2.98 µM [cytotoxic, full curve, poor fit]

Compound: CC(=O)c1ccccn1
- Potency [1]: inconclusive: 0.246 µM [cytotoxic, single point]

Compound: C=CC(=O)OCCOCCOC(=O)C=C
- Potency [1]: inconclusive: 68.9 µM [cytotoxic]
- Potency [5]: inconclusive: 77.3 µM [fluorescent, single point]
- Potency [6, 11]: inconclusive: 68.9 µM
- Potency [7]: inconclusive: 68.9 µM [cytotoxic, single point]
- Potency [3]: inconclusive: 61.4 µM [cytotoxic, single point]
- Potency [8]: inconclusive: 43.8 µM [rising, partial curve]

Compound: Cc1cc(=O)oc2cc(N(C)C)ccc12
- Potency [1]: inconclusive: 48.6 µM [rising, partial curve]
- Potency [5]: inconclusive: 30.6 µM [activator, partial curve]
- Potency [6, 11]: inconclusive: 68.6 µM [rising, single point]
- Potency [7]: inconclusive: 30.6 µM [cytotoxic, partial curve]
- Potency [3]: inconclusive: 19.3 µM [cytotoxic, full curve]
- Potency [4]: inconclusive: 43.6 µM [fluorescent]

Compound: Cc1cccc2c1cc1ccc3cccc4ccc2c1c34
- Potency [1]: inconclusive: 31.4 µM [rising, partial curve]
- Potency [5]: inconclusive: 70.2 µM [fluorescent, partial curve]
- Potency [6, 11]: inconclusive: 62.6 µM [rising, partial curve]
- Potency [3]: inconclusive: 70.2 µM [cytotoxic, single point]
- Potency [4]: inconclusive: 22.4 µM [fluorescent]

Compound: Cc1cccc(Nc2ccccc2)c1
- Potency [2]: inactive
- Potency [3]: inconclusive: 68.6 µM [cytotoxic, single point]

Compound: CCCCCCCCCCCCOCCOCCOCCOCCOCCOCCOCCOCCOCCO
- Potency [1]: active: 23.7 µM
- Potency [5]: inconclusive: 33.5 µM [cytotoxic, single point]
- Potency [6, 11]: active: 23.7 µM
- Potency [7]: inconclusive: 33.5 µM [cytotoxic, single point]
- Potency [3]: inconclusive: 1.68 µM [rising, full curve]
- Potency [8]: inconclusive: 9.52 µM [cytotoxic, partial curve]

Compound: CCO/C([O-])=N/c1c[n+](N2CCOCC2)no1
- Potency [2]: inactive
- Potency [3]: inactive

Compound: COc1cccc2c1C(=O)c1c(O)c3c(c(O)c1C2=O)C[C@@](O)(C(=O)CO)C[C@@H]3O[C@H]1C[C@H](N)[C@H](O)[C@H](C)O1
- Potency [1]: active: 24.3 µM and active: 29.8 µM
- Potency [5]: inconclusive: 1.37 µM [activator] and inconclusive: 3.76 µM [activator, partial curve]
- Potency [6, 11]: active: 2.73 µM and active: 9.44 µM
- Potency [3]: inconclusive: 2.73 µM [cytotoxic, single point] and inconclusive: 1.68 µM [cytotoxic, partial curve, poor fit]

Compound: O=C(CCCN1CCC(O)(c2ccc(Cl)cc2)CC1)c1ccc(F)cc1
- Potency [2]: inconclusive: 68.6 µM
- Potency [7]: inconclusive: 34.4 µM [cytotoxic, partial curve]
- Potency [9]: inconclusive: 49 µM [cytotoxic, partial curve]
- Potency [10]: inactive

Compound: CNCc1cc(F)ccc1Oc1ccc(Cl)c(Cl)c1
- Potency [1]: inconclusive: 34.4 µM [cytotoxic, partial curve]
- activation [5]: inconclusive: 0.0813%
- Potency [6, 11]: active: 61.1 µM
- Potency [10]: inconclusive: 38 µM [inhibitor, single point]

Compound: COc1cc(S(N)(=O)=O)cc(C(=O)O)c1OC
- Potency [2]: inactive
- Potency [3]: inactive

Compound: CN(C)c1ccc(N=Nc2ccccc2C(=O)O)cc1
- Potency [1]: inconclusive: 61.1 µM [cytotoxic, single point]
- Potency [5]: inconclusive: 24.3 µM [falling, full curve]
- Potency [6, 11]: active: 15.4 µM
- Potency [7]: inconclusive: 19.3 µM [rising, partial curve]
- Potency [3]: inconclusive: 15.4 µM [rising, full curve]

Compound: CCCCCCCCCCCCCC[N+](C)(C)Cc1ccccc1
- Potency [1]: inconclusive: 69.6 µM [cytotoxic] and inconclusive: 25.1 mM [cytotoxic, single point]
- Potency [5]: inconclusive: 69.6 µM [falling, single point]
- activation [5]: inconclusive: -8.08% [at 42.5 µM]
- Potency [6, 11]: inconclusive: 69.6 µM [single point] and inconclusive: 22.4 mM
- activity change, negative = inhibition [6, 11]: inconclusive: -34.8% [at 42.5 µM]
- Potency [7]: active: 55.3 µM and active: 5.96 µM
- Potency [3]: active: 27.7 µM and active: 6.68 µM and active: 12.6 mM
- Potency [8]: active: 49.7 µM and inconclusive: 9.52 µM [cytotoxic, partial curve] and inconclusive: 20 mM [cytotoxic, partial curve, poor fit]
- Potency [9]: active: 49.7 µM and active: 19 µM
- Potency [4]: inconclusive: 2.8 µM [rising, partial curve] and inconclusive: 5.62 mM [rising, partial curve]

Compound: [Cl][Pt-2]([Cl])([Cl])[Cl]
- Potency [2]: active: 34.5 µM
- Potency [7]: inactive
- Potency [3]: inconclusive: 2.44 µM [cytotoxic, single point]

Compound: CC1=NN(c2ccc(C(=O)O)cc2)C(=O)C1
- Potency [1]: inactive

Compound: CC[C@@]1(O)C(=O)OCc2c1cc1n(c2=O)Cc2cc3c(CN(C)C)c(O)ccc3nc2-1
- Potency [1]: inconclusive: 13.3 µM [rising, partial curve]
- Potency [5]: inconclusive: 23.7 µM [rising, partial curve]
- Potency [6, 11]: inconclusive: 23.7 µM [rising, partial curve]
- Potency [7]: inconclusive: 21.1 µM [cytotoxic, partial curve]
- Potency [3]: inconclusive: 29.8 µM [cytotoxic, partial curve, poor fit]
- Potency [4]: inconclusive: 21.3 µM [rising, partial curve]

Compound: CC(C(=O)O)c1ccc(/C=C2\CCCCC2=O)cc1 (configuration not stated)
- Potency [2]: inconclusive: 23.7 µM [falling, partial curve, poor fit]
- Potency [4]: inactive

Compound: COc1ccc2cc1Oc1ccc(cc1)C[C@H]1c3c(cc4c(c3Oc3cc5c(cc3OC)CCN(C)[C@@H]5C2)OCO4)CCN1C
- Potency [2]: active: 23.7 µM
- Potency [7]: inconclusive: 7.5 µM [cytotoxic, full curve, poor fit]
- Potency [4]: inconclusive: 23.9 µM [rising, partial curve]

Compound: Cc1nc2ccccn2c(=O)c1CCN1CCC(C(=O)c2ccc(F)cc2)CC1
- Potency [1]: inconclusive: 26.6 µM [cytotoxic, partial curve, poor fit]

Compound: CN1CCC(=C2c3ccccc3C=Cc3ccccc32)CC1
- Potency [2]: inactive
- Potency [7]: inconclusive: 23.7 µM [cytotoxic, partial curve]
- Potency [4]: inactive

Compound: Nc1nc(-c2ccccc2)c(Br)c(=O)[nH]1
- Potency [2]: inactive
- Potency [7]: inconclusive: 33.5 µM [rising, single point]
- Potency [8]: inactive

Compound: NNc1nc(-c2ccc(N)cc2)cs1
- activity change, negative = inhibition [2]: inconclusive: 3.78%
- Potency [3]: inconclusive: 6.86 µM [cytotoxic, partial curve, poor fit]

Compound: CCCC(=O)O
- Potency [2]: inconclusive: 72.2 µM [rising, partial curve, poor fit]
- Potency [4]: inconclusive: 23 µM [activator, single point]

Compound: Clc1ccc2c(c1)CCc1cccnc1C2=C1CCNCC1
- Potency [2]: active: 26.6 µM
- Potency [7]: active: 21.1 µM
- Potency [3]: inconclusive: 10.6 µM [cytotoxic, full curve]

Compound: CCCC(=O)OC[C@@H](OC(=O)CCC)[C@@H](OC(=O)CCC)[C@H](Cn1c2nc(=O)[nH]c(=O)c-2nc2cc(C)c(C)cc21)OC(=O)CCC
- Potency [1]: inconclusive: 13.3 µM [rising, partial curve]
- Potency [5]: inconclusive: 33.5 µM [rising, single point]
- Potency [6, 11]: inconclusive: 23.7 µM [partial curve]
- Potency [3]: inconclusive: 2.66 µM [rising, full curve, poor fit]
- Potency [4]: inconclusive: 19 µM [rising, partial curve]

Compound: CNc1c2c(nn1C)CCCC2
- Potency [1]: inactive

Compound: COc1ccc(C(=O)CC(=O)c2ccc(C(C)(C)C)cc2)cc1
- activity change, negative = inhibition ([6]; at 42.5 µM (top of the series)): inactive: 7.45%

Compound: C=CC(=O)OCCC#N
- Potency [5]: inactive

Compound: Cc1cc(S(=O)(=O)O)c(N)cc1Cl
- Potency [1]: inactive
- Potency [3]: inactive
